Literature values in US7439350B2, “Nucleotide analogs” (Gilead Sciences, Inc., priority 1993, dated 2008).

Conditions: Balzarini et al, Animal Models in AIDS (1990); cited from earlier work

## Nc1ncnc2c1ncn2CCOCP(=O)(O)O [PMEA, 9-(2-phosphonylmethoxyethyl)adenine]
  oral bioavailability: 2-4%
